Reference: article PMC10726135
The list shows a part of the results. At the low end of the ranking the order means little. The protein was read in a cell extract, so binding may be indirect.

Target: T1, HNF4alpha8 (COS-7 nuclear extract) (UniProt P41235-5)
T1 sequence: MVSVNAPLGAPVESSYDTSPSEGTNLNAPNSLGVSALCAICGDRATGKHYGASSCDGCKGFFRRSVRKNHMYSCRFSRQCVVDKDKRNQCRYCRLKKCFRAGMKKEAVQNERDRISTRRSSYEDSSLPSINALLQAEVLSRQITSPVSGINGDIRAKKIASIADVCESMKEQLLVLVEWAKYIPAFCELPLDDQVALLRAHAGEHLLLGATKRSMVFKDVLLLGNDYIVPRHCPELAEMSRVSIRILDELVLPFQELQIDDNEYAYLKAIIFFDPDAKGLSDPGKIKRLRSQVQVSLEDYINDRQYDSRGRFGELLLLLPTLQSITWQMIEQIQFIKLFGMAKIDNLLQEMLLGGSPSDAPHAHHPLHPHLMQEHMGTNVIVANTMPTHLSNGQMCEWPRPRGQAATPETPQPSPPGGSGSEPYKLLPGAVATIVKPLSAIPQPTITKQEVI
Experiment: protein-binding microarray
Conditions: COS-7 nuclear extract on double-stranded Agilent 4x180k PBM; binding buffer, salt, pH and temperature not given; high values mean tight binding; double strand, one strand shown; sequences stand for … in …GCCTAGGGAGATTAGAGTATCGGTCGA

Sequence | binding signal (log2 normalized intensity)
GTCTAAGCTAGTCATAGCTGGGTTTCCAGC | -1.32
GCCGAGAGCGGCTCGTTGGTCTAGGGGTAT | -1.05
AGGCTCCCCTAATCCCTGTGACATTTTCAG | 1.09
GATAATCACCCGATAAGCTGACCCCAAAAC | 5.31
TATTTGTTTTCTGTCTTCATCCTGAGAGGG | 1.54
AGACAACCTTTGTTCACAGTGACGTTCTGC | 1.84
TGCAAGGAAATGGATTGCCTCCTAAGGCCT | -1.35
TAAACAGAAGAAAGGGGCTAGGGCAAAGAT | -1.24
GATCAAAGTTCATTGTAGCCTCAAATTCCT | 3.94
ATAGCGCCCACACTGCCCATCCCCACTGAA | 3.12
AGCAGGCAGAGGTCAATGTCCACACCCCAG | 5.16
TAAAACACAAATCTCCACAAACATACAACC | -1.46
TCACGTACCGGCTAGACAAACAGCTTCTGT | -1.26
CTGCACCTTGAAACCCCTCCTTACAGTGCC | 2.43
AGCAGGTGACCTTCGATCACCTCAAGAAAG | 4.91
CTCCTGGATTGCAGGTAAACACAGTGATGG | 0.15
AAGTTTGAAAATGCCTTGAACTATTCACTG | -1.32
AGGGGGAGGAGAGTACTGTCTCTTATCAGC | -1.2
CCCACGGTCAGGACTTGATGATTGACACTA | -0.428
CTGGGTGAGCCGCACACCGACTTGCACCAG | -1.26
ACTGTAAACCAGCAGTATCTTTGTGTCACC | 0.555
AAGTCTTAGCTCATTTCAGCCTTAACTCAA | -1.18
GCAGAAGCAGAGAGAAACTTTGGAAGTAGG | -1.22
CCGGAGAGGCTTATTCCGTACAAGGATTCA | -1.33
CAAGCCTGCCGAGGTGTCCTGTAAATAGTG | 0.553

Sequence | binding signal (log2 normalized intensity)
ACGCTGTTGTCTGTGACTGGGGTCAAACTC | 4.79
TTGCAATAAAAGATTGCATCTGTTTTTATT | -1.22
CCCTCAGGGATCTTTGCACTTGATGTTCCC | 1.69
AGCAGGCCTCGGGCCTGCGAGGTTACAGGG | 0.048
ATCCGCTAATGACACCAGGGAACACACCAT | -1.17
CTAACATTCAGAGGTCAGGGGAGAGAGGCA | -1.28
CCCAAAGGCATGAATAGAATGCAACCAAGT | -1.14
GAGGTGACCCTTGCACTCATACTTGAAGAC | 4.75
AAGGCCTTAAAGTGTAAATATTTGAGGACA | 0.314
TCAGGTAAAGATATGGAACACTTTCAGAGA | -0.477
TCCAGGAGGGGAGGAGGGTCAAAACTTCAG | -1.31
GCAGAAAACGCAATTGCCCTACAGCTCCTG | -1.29
CTGTCCCTCAGTGTGGGACTTTGGTCTGCT | 5.11
AGCTGTTATCTTGGTGCCTGCAGAGCCTCC | -1.19
ATTCCAAGAAGGCAGACTCAAGATAGAGGG | -1.22
TTGGAGAAAAAAAACCATTGCAAATTGGAT | -1.2
ACCAAGTACCGCAAACAAGGTGGCTTGAAA | -1.38
GGCCAAAGTACGCTCCACCCCTCAGCCTTT | 3.21
GCGGCTCCGGGAGCTGGCGGCGCGGCCGGA | -1.26
TCTCTGAGCAGTGAATGTTGAAGTCCCACG | 0.39
AAAGAGAGAGTTAGTTCTGCAAACACCCCT | 1.84
CAATGTGCTCATCCATAAAATGGGGTAATG | 1.03
CCCAGATGGGCTGGCAGAGGGGATCAAGTG | -1.34
TAACCCCCTTGTCTTCCTCAAATTACAAAA | 1.89
GAGGGCAACCTTTGAACTGGGTCTTAATAA | 4.2

Sequence | binding signal (log2 normalized intensity)
GAAAACCTTGTCTAAGCCCTTATCAAAAAG | -1.33
TGACACCTAGCTGAGCAGGGGACTAAGAGC | -1.21
TGACTGATTCCTGCTGAGAGAGCAGGTTGA | -0.841
GAGTTCAAAGGATACAGATAAATAAATCAA | -1.37
GATCCTCATTTCCCCATTCCTAAGTTCCAA | 1.82
TGGAGAATGGATCTAAGGACAAAGTCCAAG | 6.94
TTATCAGCTGCTAAGTCTTTCCACACAGCC | -1.33
TGCTTATTTCCCATCAAGGATCAAGGACCT | 1.04
GTTGAGGTAGAGGGACACTGATAACATGAG | -1.29
AAAATCACACTGGGAATTGGGATGGCAGCT | -1.43
CCAGTTTCTCAACAGACCCCTGAATTGGTC | 2.18
TCTTTCCACACAGCCTGTCAAAGGGAGAAA | -1.28
GAAGGTGCTCAGAAAATTGATTCTAATCTC | -1.23
ACTGGGGACTAGTAGAGTGGGGAGGTAGGG | -1.14
AGGTCACATAGCAGGCATACCAGGCAGAGG | -1.36
AATGCACCCAGAACCCCCAGGTCACCCACA | 4.67
CTGGACTTTCCTTTGTTGGGAGACTTTTTA | 1.45
AAAAGCAGGCAACCAAGGGTACACACCGTT | -1.24
CACCTTCTACACAGCACCCCTTGCAAATAA | 2.2
AATGCCAGGACCCTGTGGGACTGGTTTCAA | -1.35
GTCTCCAGCCCCCAGAGGTCACACTGATAC | 3.87
CCTGTTAAAAACACGAGCTATTGCGAGGTT | -1.38
CTCATTCTTGGAATGCATTGCAAGTCGTAT | 1.25
